Results published in the supplement of paper PMC3334620.
In all, about 33,000 sequences were measured (“E-score (-0.5 to 0.5)”: median about -0.013, highest 2% from about 0.3 on). Some of the results follow.

biological target: T1, Msn1 (UniProt P22148); assay: PBM E-score (8-mer binding enrichment) (E-score (-0.5 to 0.5)); higher = stronger / more preferred TF binding; most listed sequences are background and not binding sites; settings: protein concentration: 200 nM; construct: GST-full length
T1 sequence: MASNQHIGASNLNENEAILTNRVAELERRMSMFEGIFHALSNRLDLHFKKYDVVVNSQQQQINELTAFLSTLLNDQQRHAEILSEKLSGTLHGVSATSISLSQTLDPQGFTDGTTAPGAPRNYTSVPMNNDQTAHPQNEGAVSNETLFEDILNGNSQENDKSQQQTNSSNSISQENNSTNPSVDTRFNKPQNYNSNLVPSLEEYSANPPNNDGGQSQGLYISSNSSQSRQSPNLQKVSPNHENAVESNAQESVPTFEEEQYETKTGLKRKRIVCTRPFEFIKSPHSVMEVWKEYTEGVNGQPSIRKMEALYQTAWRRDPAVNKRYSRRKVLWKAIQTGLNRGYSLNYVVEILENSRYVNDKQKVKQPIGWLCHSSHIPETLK
Outline: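 For each ungapped eight-base word taken together with its reverse complement, the Universal PBM Analysis Suite assigned an E-score. Binding data came from GST-tagged yeast transcription factors, applied at about 100-200 nM, on universal all-10-mer Agilent arrays made double-stranded by primer extension. Fluorescent anti-GST marked bound protein, and scans were normalised with masliner.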

Row | Sequence | PBM E-score
1 | CCGCTCTA | 0.0134
2 | CAGGCTCC | -0.27
3 | AACAAAAT | 0.247
4 | AATGAACG | 0.0599
5 | AATACGAG | 0.0128
6 | AACCATCC | -0.0425
7 | AACCTACC | -0.195
8 | CCCGGCCC | -0.299
9 | TATAAAGA | 0.174
10 | ACTAAGTC | -0.0523
11 | ACTATCGC | -1e-05
12 | AAAGCTGT | 0.0549
13 | GCCAATAA | 0.192
14 | CTTCTTAC | -0.0174
15 | AGCTAGGG | -0.163
16 | ACTCTCGA | -0.0168
17 | CAGCCCAC | -0.252
18 | GCGGGGCC | -0.246
19 | ACAGTCCG | 0.0173
20 | CGTATTAA | 0.0418
21 | ACCCTATG | -0.0968
22 | ACTAGGCT | -0.0597
23 | CACGCACC | -0.149
24 | ACCAGTAC | 0.0061
25 | CTGTCTGC | -0.127

Row | Sequence | PBM E-score
26 | CCTTCTAG | -0.0887
27 | AGGCTAGA | -0.196
28 | CGACCCCA | -0.177
29 | CTCAACCA | -0.104
30 | ACGGTTGG | -0.236
31 | CTCATCAA | 0.138
32 | ATGATCTA | 0.076
33 | CGATAGCA | -0.132
34 | ATTCGCTA | -0.1
35 | AATCATCC | -0.135
36 | AAACCGTA | -0.0236
37 | CATACGGC | -0.0218
38 | GATATAGA | -0.0256
39 | AGGGCGCC | -0.305
40 | CAGGCTTA | -0.0138
41 | TCCGTAGA | 0.0628
42 | TAAACCTA | 0.0654
43 | AGGTCACT | -0.107
44 | ACGGTAGG | -0.167
45 | AGCGAACC | -0.134
46 | CTGGGTAC | -0.294
47 | AGTGGAAC | 0.00101
48 | TTGAGCAA | -0.0524
49 | GCAGAGAC | -0.107
50 | GAGTACGC | -0.125

Row | Sequence | PBM E-score
51 | AAGCCCCG | -0.042
52 | GACTCAGA | 0.0175
53 | AATTTGAC | 0.194
54 | CAGACCAC | -0.116
55 | TACCGAGA | 0.131
56 | CCTAGCGA | -0.146
57 | ATTATAAA | 0.17
58 | ACTGCATC | -0.206
59 | CGGTTAAA | 0.0871
60 | GAGGTTGA | -0.0528
61 | GACGGTGC | -0.164
62 | AGCGTTGA | -0.12
63 | GTGGCCAC | -0.0132
64 | AAGACGAG | -0.174
65 | ATGTCACG | 0.31
66 | CGATGATC | -0.0829
67 | AGGGAGGC | -0.346
68 | ACTCGCGG | -0.00017
69 | GAGGCAAA | 0.0578
70 | ACGATAAC | 0.0494
71 | ACTACACT | -0.0242
72 | ATCGCTCG | -0.0356
73 | TTTATAAA | 0.264
74 | ACTGGAAC | -0.0157
75 | AAGCCAGT | -0.224

Row | Sequence | PBM E-score
76 | AGTCGATG | -0.0525
77 | TGGACACA | 0.427
78 | GCAGGGTA | -0.113
79 | ATGAGGTG | -0.151
80 | AATCCCTG | -0.0745
81 | GCGGCGCC | 0.0933
82 | ATTGTTCG | 0.259
83 | GCACGCCA | -0.277
84 | CAACCGAG | 0.0584
85 | GCTCGAAA | -0.00351
86 | TCTCTAAA | -0.0112
87 | CCCACCGC | -0.191
88 | GACCTCAA | -0.0271
89 | CAGCGAAG | -0.193
90 | ATCTCCTG | -0.00465
91 | GTATCGAA | 0.122
92 | CTTTTCGA | 0.0793
93 | TATTCGCA | -0.00765
94 | CGAACAAA | 0.2
95 | ATTCAGGA | 0.208
96 | ATAGAGGC | -0.178
97 | CCATATGA | 0.0213
98 | GCATGGTA | 0.0994
99 | AAAGAACT | -0.0159
100 | CTTCACGA | -0.286

Row | Sequence | PBM E-score
101 | AGTATCGC | -0.0831
102 | CCCTCACA | -0.0696
103 | ACCATCTC | -0.0822
104 | GGTTTTGA | 0.0871
105 | GGTTCAGA | -0.136
106 | AGTGCGAT | -0.113
107 | TCTGCCCA | 0.0034
108 | CCGATACC | -0.00251
109 | TCCAGAGA | -0.172
110 | TCAATAAA | 0.103
111 | CTTTTGGA | 0.163
112 | AGAGGACC | -0.208
113 | CTGGACAA | 0.43
114 | CAACCCAG | -0.0391
115 | ACCACCGA | 0.00223
116 | CGACAAAA | 0.423
117 | CGCATTAA | 0.183
118 | AACCTTGG | -0.192
119 | CCTCCTGC | -0.159
120 | CCGAACCA | -0.166
121 | TCGGAGCA | 0.232
122 | AAATGCCG | 0.0238
123 | CCCTCTAC | -0.204
124 | AATGATTC | 0.177
125 | AGCCCGCA | -0.146

Row | Sequence | PBM E-score
126 | ACCTGAGA | 0.0537
127 | ACCGCAGT | -0.0514
128 | GAGCCCGA | -0.128
129 | ACCGACCC | -0.107
130 | AAAAGGAC | 0.248
131 | AACCACTG | 0.0962
132 | AGCGTAGC | -0.136
133 | GAGATTGC | -0.0916
134 | CTCCGCCC | -0.226
135 | CCTTCGTC | 0.108
136 | GCAGAGTA | -0.0382
137 | AATAGCGG | 0.0486
138 | GAGTATTA | 0.00348
139 | CAAACGGC | -0.141
140 | AAGCTGAC | -0.00835
141 | CCGGCATC | -0.0891
142 | CCTGTGAC | -0.0638
143 | ATTGAAGG | -0.113
144 | CAACACCG | -0.12
145 | CTATAGTC | -0.138
146 | AAGAGTAA | 0.0499
147 | ACTTACAA | 0.177
148 | AACCGTAT | -0.139
149 | ATTCCTCG | 0.0159
150 | ACTCCCCA | -0.0702

Row | Sequence | PBM E-score
151 | CGTAATCA | 0.101
152 | CCGCCCCA | -0.0542
153 | AGTGTCTA | 0.188
154 | ATGGGTAA | 0.0578
155 | GTGGCAAC | 0.0174
156 | CTTACTCC | -0.0325
157 | CCCTATGC | -0.199
158 | ACTTCGGA | 0.108
159 | AGAAAGCG | -0.107
160 | CCTAAGGA | -0.0865
161 | AGGCGACT | -0.0861
162 | GAGACTAA | 0.131
163 | GCGGGTCA | -0.0271
164 | AGCCGTTA | 0.0281
165 | CGGGCAGC | -0.122
166 | CACCCGCG | 0.0812
167 | CTAGTCAG | -0.133
168 | GCCGCGGA | -0.0181
169 | CGGATCCG | 0.0823
170 | GGCCCTAA | -0.0622
171 | TATAGGGA | -0.0109
172 | AGATGGTC | -0.158
